In all, about 360,000 compounds went through this assay and about 740 (0.21%) were called active. The shares of active, inactive and inconclusive entries below differ from those in the screen. The call rests on the fitted dose curve; in most records, active means well fitted inhibition curve with a large enough effect; inconclusive means small, poorly fitted or top-dose-only effect; inactive means no such curve, though single readings can be large or run the other way. No potency is given beside an inconclusive call; the fits are too rough.
System: Plasmodium falciparum AMA1 (3D7) - RON2 peptide interaction
Assay: qHTS for Inhibitors of AMA1-RON; Towards Development of Antimalarial Drug Lead: Primary Screen; further: nearly all actives have a fitted effect of over 45% in size;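 on activity change, negative = inhibition: 0% = vehicle wells and -100% = peptide control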
Conditions: AlphaScreen AMA1-biotinylated RON2 peptide binding; activity change, negative = inhibition: at 58.2 µM (top of the series) unless noted
Summary of the method: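 AMA1 (3D7) with his tag at 25 nM final met compounds first, then biotinylated RON2 peptide at 25 nM; detection used donor plus acceptor beads, 10 µg/mL apiece, read by AlphaScreen after 30 min at room temperature.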
Potency means the concentration at half of the fitted maximal effect; tags describe the fitted curve by direction and shape.

SMILES | activity change, negative = inhibition | Potency
COc1ccc(C(=O)CCN2CCN(c3ccc(OC)cc3)CC2)cc1 | inactive: -28% | –
O=S(=O)(Nc1ccon1)c1ccc(F)c(F)c1 | inactive: 8.28% | –
Cc1cccc(NC(=O)c2cc(-c3cc(Cl)ccc3O)n[nH]2)c1 | inactive: 56.2% | –
Cc1ccc(N=c2c([N+](=O)[O-])nn(-c3ccccc3)n2O)c(C)c1 | – | inconclusive [inhibitor, partial curve]
CC(C)P(=O)(c1cccc(C(=O)O)c1)C(C)C | – | inconclusive [inhibitor, single point]
CN(CC(=O)NCC1CCCO1)S(=O)(=O)c1cc(Cl)ccc1Cl (stereo unspecified) | – | inconclusive [inhibitor, single point]
CC(=O)Nc1cccc(-c2csc(NCc3ccccc3)n2)c1 | – | inconclusive [inhibitor, single point]
Cc1ccc(OCc2nc(-c3ccccn3)n[nH]2)cc1 | – | inconclusive [inhibitor, single point]
CN(CC(=O)Nc1cccc(S(=O)(=O)N2CCCC2)c1)CC(=O)Nc1ccc(F)c(F)c1F | inactive: 84.7% | –
COc1ccccc1CNC(=O)c1ccccc1SCC(=O)NCc1ccco1 | inactive: -6.09% | –
C=CCn1c(COC)nnc1SCC(=O)c1ccc(F)cc1 | inactive: -5.83% | –
COCCn1c(C)cc(C(=O)COC(=O)c2ccc(Cl)c(S(N)(=O)=O)c2)c1C | – | inconclusive [inhibitor, partial curve]
Fc1ccc2c(c1)C1OCCCC1C(c1ccccc1)N2 (stereo unspecified) | – | inconclusive [inhibitor, single point]
O=C(CSc1ccc(-c2cccs2)nn1)N1CCCCCC1 | inactive: 10.3% | –
CCOc1ccccc1NC(=O)[C@@H](NC(=O)c1ccccc1F)C(C)C | – | inconclusive [inhibitor, partial curve]
COc1cccc(NC(=O)C2CCCN(S(=O)(=O)c3cccc4nsnc34)C2)c1 (stereo unspecified) | – | inconclusive [inhibitor, single point]
Cc1cc2c(cc1S(=O)(=O)N1CCN(c3ccccc3)CC1)OCCN2C | – | inconclusive [inhibitor, single point]
O=C(N/C(=C/c1cn(-c2ccccc2)nc1-c1ccccc1)C(=O)N1CCOCC1)c1ccc(Cl)cc1Cl | – | inconclusive [inhibitor, full curve, poor fit]
C=CCNc1nc(Cl)nc(NC2CCCCC2)n1 | inactive: 8.44% | –
Clc1ccc(C=NN2CCCCCC2)cc1 | – | inconclusive [inhibitor, single point]
Cc1cccc2sc(N(CCN(C)C)C(=O)/C=C/c3cccs3)nc12 | inactive: -12.8% | –
COc1cc(OC)cc(C(=O)N2CCN(C3CCC(C)CC3)CC2)c1 (stereo unspecified) | – | inconclusive [inhibitor, partial curve]
CCN(Cc1ccccc1)c1ccc(/C=N/N=C(N)N)cc1 | – | inconclusive [inhibitor, single point]
Cc1ccc(C(C(=O)NCC2CCCO2)N(C(=O)c2snc(C(N)=O)c2N)c2ccc3c(c2)OCCO3)cc1 (stereo unspecified) | – | inconclusive [inhibitor, partial curve]

SMILES | activity change, negative = inhibition | Potency
CCc1nn2cc(C(=O)c3ccccc3O)cnc2c1-c1ccc(F)cc1 | – | inconclusive [inhibitor, partial curve]
COc1ccc(Br)cc1CN1CCN(Cc2c[nH]c3ccccc23)CC1 | – | inconclusive [inhibitor, single point]
O=C1CCC(=O)N1OCCCOc1ccc2c(c1)CCC2 | inactive: -0.498% | –
CC(C)(C)OC(=O)N[C@H](C(=O)OC(C)(C)C)c1ccc2c(c1)OCO2 | – | inconclusive [inhibitor, partial curve]
Cc1ccc(OCCn2ccnc2)c([N+](=O)[O-])c1 | – | inconclusive [inhibitor, single point]
CCSc1ccc([C@@H]2[C@H]3C(=O)N(CC)C(=O)[C@H]3[C@]3(C(=O)OC)CCCCN23)cc1OC | inactive: -18.3% | –
COc1ccc(C2=NS(=O)(=O)N(C)C(C(=O)Nc3ccc4c(c3)OCO4)=C2)cc1 | – | inconclusive [inhibitor, single point]
CS(=O)(=O)c1ccc(C(=O)Nc2nc(-c3ccco3)c(-c3ccco3)s2)cc1 | – | inconclusive [inhibitor, full curve]
CCOc1ccc(NC(=O)NC23CC4CC(CC(C4)C2)C3)cc1 | – | inconclusive [inhibitor, partial curve]
CC(=O)Nc1sc(-c2ccccc2)nc1-c1ccccc1 | – | inconclusive [inhibitor, single point]
NC(=O)c1ccc(NC(=O)c2ccc(CN3CCOCC3)cc2)cc1 | inconclusive: -9.62% [inhibitor] | –
Cc1cc2nccc(-c3ccc(OCCCF)cc3)n2n1 | inactive: 26.5% | –
CCOc1ccccc1NC(=O)NC1Cc2ccccc2C1 | inactive: -1.17% | –
S=C(c1ccc(-c2ccc(Br)cc2)o1)N1CCOCC1 | – | inconclusive [inhibitor, partial curve]
O=S(=O)(Oc1ccc(Cl)cc1)c1cccc2cccnc12 | inactive: 8.79% | –
CCNc1oc(/C=C/c2ccc(OCC)cc2)nc1C#N | inactive: 7.86% | –
COc1ccc(C(=O)N2CCN(Cc3ccc(OC)c(OC)c3)CC2)cc1 | – | inconclusive [inhibitor, single point]
CCOC(=O)c1c(NC(=O)CN2C(=O)NC3(CCC(C)CC3)C2=O)sc(C)c1-c1ccc(C)cc1 (stereo unspecified) | – | inconclusive [inhibitor, partial curve]
C=CC(=O)Nc1cccc(Oc2ccnc(Nc3ccc(N4CCN(C)CC4)cc3)n2)c1 | – | inconclusive [inhibitor, single point]
CCC/C=N/Nc1nnc(Cc2ccc(OC)c(OC)c2)c(=O)[nH]1 | – | inconclusive [inhibitor, single point]
CN(C)c1cccc(CN2CCN(c3ccccc3)CC2)c1 | – | inconclusive [inhibitor, partial curve]
O=C(CNc1ccc(Br)cc1)c1ccccc1 | inactive: -5.64% | –
Cc1ccc(-c2cc(C(F)F)nc(NCc3cccnc3)n2)cc1 | – | inconclusive [inhibitor, partial curve]
COc1cc(C2CC(=O)Oc3c(C(CCN4CCOCC4)c4ccc(N(C)C)cc4)c(OC)cc(OC)c32)cc(OC)c1OC (stereo unspecified) | – | inconclusive [inhibitor, partial curve]

SMILES | activity change, negative = inhibition | Potency
CC1CCCCC1NC(=O)CCCc1nc2ccccc2c(=O)[nH]1 (stereo unspecified) | inactive: 0.537% | –
Cc1ccc(CNc2nc(NCC3CC3)nc3ccsc23)c(C)c1 | – | inconclusive [inhibitor, single point]
COc1cc(O)c(C(CCN2CCN(c3ccccc3)CC2)c2ccc3c(c2)OCO3)c(OC)c1 (stereo unspecified) | – | active: 15.8 µM
CCN1CCN(c2nc(Nc3cc(OC)ccc3OC)nc(Nc3cc(OC)ccc3OC)n2)CC1 | – | inconclusive [inhibitor, full curve, poor fit]
CCN(Cc1ccncc1)C(=O)C1CCN(S(=O)(=O)c2cccs2)CC1 | – | inconclusive [inhibitor, full curve]
CCOC(=O)C/C(C)=N\Nc1ccc([N+](=O)[O-])cc1[N+](=O)[O-] | – | inconclusive [inhibitor, partial curve]
S=c1sscc1-c1ccccc1 | – | active: 20 µM
Cc1ccc2c(c1)C1CN(C)CCC1N2C(=O)CCCN1C(=O)c2cccc3cccc(c23)C1=O (stereo unspecified) | inactive: 7.46% | –
Cc1csc(NC(=O)CSc2sc3c(O)cc(=O)[nH]c3c2C#N)n1 | – | inconclusive [inhibitor, partial curve]
CSc1ccc(CN2CCC2(C)C(=O)Nc2ccc3c(c2)OCO3)cc1 (stereo unspecified) | – | inconclusive [inhibitor, partial curve]
O=c1c2ccccc2nc(SCCN2CCCCC2)n1CCc1ccccc1 | – | inconclusive [inhibitor, single point]
COc1ccc(NC(C(=O)Nc2cccc(C(C)=O)c2)c2ccccc2)cc1 (stereo unspecified) | – | inconclusive [inhibitor, single point]
Clc1cccc(C2Nc3cccc4cccc(c34)N2)c1Cl | – | inconclusive [inhibitor, single point]
COc1ccc(NS(=O)(=O)c2ccc3c(c2)N(C(C)=O)CC(C)S3)c(OC)c1 (stereo unspecified) | inactive: -6.04% | –
O=C(CCCC(=O)OCC(Cl)=C(Cl)Cl)Nc1ccccc1F | – | inconclusive [inhibitor, partial curve]
CN(C)c1ccc(/C=C/c2cc[n+](C)c3ccccc23)cc1 | – | inconclusive [inhibitor, single point]
CC(NC(=O)CN1CCN(S(=O)(=O)c2ccc(Br)cc2)CC1)c1ccccc1 (stereo unspecified) | inactive: -7.11% | –
O=C(c1cccc(N2C(=O)C3C4C=CC(C4)C3C2=O)c1)N1CCCc2ccccc21 (stereo unspecified) | inactive: 16.2% | –
CC(C)c1ccc(CCNC(=O)c2ccc([N+](=O)[O-])cc2)cc1 | – | inconclusive [inhibitor, single point]
S=C(NCc1ccc2[nH]c3c(c2c1)CCCC3)Nc1ccccc1 | inactive: 9.46% | –
CC(=O)N(Cc1ccc(F)cc1)C1=C(NCc2ccccc2)C(=O)c2ccccc2C1=O | – | inconclusive [inhibitor, partial curve]
C[C@H](CO)N1C[C@H](C)[C@H](CN(C)S(=O)(=O)c2cccs2)Oc2ccc(NC(=O)Nc3ccc4c(c3)OCO4)cc2CC1=O | – | inconclusive [inhibitor, single point]
CCOC(=O)c1c(C)[nH]c(N=Nc2cccc(C)c2)c1C | – | inconclusive [inhibitor, single point]

— PubChem BioAssay AID720542 (National Center for Advancing Translational Sciences (NCATS), 2013)
